{"sequences": {"note": "The chains behind the UniProt entries cited, without tags or fusion partners.", "UniProt P25694": "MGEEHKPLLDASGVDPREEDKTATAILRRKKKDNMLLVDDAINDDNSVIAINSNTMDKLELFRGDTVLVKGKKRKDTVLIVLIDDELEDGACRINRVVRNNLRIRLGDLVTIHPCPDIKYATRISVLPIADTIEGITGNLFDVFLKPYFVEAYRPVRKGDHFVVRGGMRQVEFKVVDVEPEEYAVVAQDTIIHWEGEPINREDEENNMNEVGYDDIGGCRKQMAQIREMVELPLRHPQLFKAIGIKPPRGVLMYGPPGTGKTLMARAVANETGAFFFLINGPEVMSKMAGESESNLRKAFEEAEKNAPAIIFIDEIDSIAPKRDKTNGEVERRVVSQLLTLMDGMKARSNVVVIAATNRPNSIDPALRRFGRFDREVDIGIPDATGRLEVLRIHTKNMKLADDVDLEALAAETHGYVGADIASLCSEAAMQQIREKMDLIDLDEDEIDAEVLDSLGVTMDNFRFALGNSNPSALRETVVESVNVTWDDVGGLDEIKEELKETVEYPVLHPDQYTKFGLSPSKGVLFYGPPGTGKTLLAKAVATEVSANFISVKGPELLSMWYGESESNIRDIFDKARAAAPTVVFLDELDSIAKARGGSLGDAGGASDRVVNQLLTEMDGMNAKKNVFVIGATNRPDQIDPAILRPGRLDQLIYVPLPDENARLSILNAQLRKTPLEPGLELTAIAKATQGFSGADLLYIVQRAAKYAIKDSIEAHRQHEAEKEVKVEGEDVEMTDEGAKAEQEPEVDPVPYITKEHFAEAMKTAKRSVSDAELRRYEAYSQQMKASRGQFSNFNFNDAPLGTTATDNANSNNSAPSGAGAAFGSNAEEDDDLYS"}, "source": "paper PMC8641752", "key": {"[1]": {"biological_target": "T1, Dfm1-F107S (S. cerevisiae) (UniProt Q12743)", "T1 sequence": "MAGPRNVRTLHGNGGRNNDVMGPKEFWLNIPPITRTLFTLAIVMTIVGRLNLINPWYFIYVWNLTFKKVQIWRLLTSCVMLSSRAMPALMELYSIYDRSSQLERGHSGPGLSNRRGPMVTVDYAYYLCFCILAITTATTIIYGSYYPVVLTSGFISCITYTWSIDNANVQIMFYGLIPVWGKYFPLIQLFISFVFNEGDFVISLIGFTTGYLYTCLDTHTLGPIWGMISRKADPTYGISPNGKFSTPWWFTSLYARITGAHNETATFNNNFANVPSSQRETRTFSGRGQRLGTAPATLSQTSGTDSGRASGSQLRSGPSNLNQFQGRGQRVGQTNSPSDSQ", "assay": "co-sedimentation; Cdc48 microsome association assay: yeast lysate split into cytosolic supernatant and microsomal pellet by centrifugation; Cdc48 in the pellet of strains expressing the variant, blot with anti-Cdc48"}, "[2]": {"biological_target": "T2, Dfm1-F58S (S. cerevisiae) (UniProt Q12743)", "T2 sequence": "T1 sequence with F58S, S107F", "assay": "co-sedimentation; Cdc48 microsome association assay: yeast lysate split into cytosolic supernatant and microsomal pellet by centrifugation; Cdc48 in the pellet of strains expressing the variant, blot with anti-Cdc48"}, "[3]": {"biological_target": "T3, Dfm1-K67E (S. cerevisiae) (UniProt Q12743)", "T3 sequence": "T1 sequence with K67E, S107F", "assay": "co-sedimentation; Cdc48 microsome association assay: yeast lysate split into cytosolic supernatant and microsomal pellet by centrifugation; Cdc48 in the pellet of strains expressing the variant, blot with anti-Cdc48"}, "[4]": {"biological_target": "T4, Dfm1-Q101R (S. cerevisiae) (UniProt Q12743)", "T4 sequence": "T1 sequence with Q101R, S107F", "assay": "co-sedimentation; Cdc48 microsome association assay: yeast lysate split into cytosolic supernatant and microsomal pellet by centrifugation; Cdc48 in the pellet of strains expressing the variant, blot with anti-Cdc48"}, "[5]": {"biological_target": "T5, Hmg2-GFP (S. cerevisiae) (UniProt P12684)", "T5 sequence (chain, polyubiquitin chain conjugated in cells (sites not printed))": "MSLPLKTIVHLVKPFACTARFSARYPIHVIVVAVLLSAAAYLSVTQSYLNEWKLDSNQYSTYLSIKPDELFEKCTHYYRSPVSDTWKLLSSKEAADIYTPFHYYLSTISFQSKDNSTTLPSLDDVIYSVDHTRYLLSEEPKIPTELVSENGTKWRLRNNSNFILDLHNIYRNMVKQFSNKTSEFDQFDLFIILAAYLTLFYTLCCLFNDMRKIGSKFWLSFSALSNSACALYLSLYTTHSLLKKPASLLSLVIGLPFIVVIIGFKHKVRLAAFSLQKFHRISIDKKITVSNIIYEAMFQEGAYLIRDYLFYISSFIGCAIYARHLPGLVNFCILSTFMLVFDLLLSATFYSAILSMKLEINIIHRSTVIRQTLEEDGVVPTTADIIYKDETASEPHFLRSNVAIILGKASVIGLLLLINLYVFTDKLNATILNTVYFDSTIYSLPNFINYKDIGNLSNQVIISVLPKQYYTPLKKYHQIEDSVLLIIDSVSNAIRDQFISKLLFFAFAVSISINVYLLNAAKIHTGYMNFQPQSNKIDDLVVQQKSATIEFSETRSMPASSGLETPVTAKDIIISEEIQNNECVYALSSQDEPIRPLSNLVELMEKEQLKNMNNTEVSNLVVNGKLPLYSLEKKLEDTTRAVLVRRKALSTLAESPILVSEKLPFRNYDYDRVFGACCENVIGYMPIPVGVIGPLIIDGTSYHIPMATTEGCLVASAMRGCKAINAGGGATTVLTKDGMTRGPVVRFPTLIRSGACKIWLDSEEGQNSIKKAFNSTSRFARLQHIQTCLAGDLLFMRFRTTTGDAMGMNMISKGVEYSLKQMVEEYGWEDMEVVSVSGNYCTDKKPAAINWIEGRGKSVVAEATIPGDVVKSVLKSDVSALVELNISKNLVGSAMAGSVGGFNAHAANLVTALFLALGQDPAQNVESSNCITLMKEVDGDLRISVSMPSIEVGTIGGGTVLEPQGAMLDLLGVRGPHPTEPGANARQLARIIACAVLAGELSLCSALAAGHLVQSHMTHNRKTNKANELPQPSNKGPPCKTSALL", "assay": "co-IP; free polyubiquitin competition test: solubilised microsomes incubated with Lys48-linked polyubiquitin chains (2, 5, 10 μg) or buffer for one hour at 4°C, then GFP-Trap precipitation of Hmg2-GFP; blots for Cdc48, Dfm1-HA"}, "[6]": {"biological_target": "T5, Hmg2-GFP (S. cerevisiae)", "assay": "condition: only after removal of the ubiquitin chain from Hmg2-GFP with Usp2Core; co-IP; solubilised microsomes treated with Usp2Core (5 μg, 1 hr, 37°C) to remove ubiquitin from Hmg2-GFP, then GFP-Trap precipitation of Hmg2-GFP; blots for ubiquitin, Cdc48, Dfm1-HA"}}, "note": "Numbering of substitutions follows the chain as printed. Results are given in words; binding and its absence hold for the method and conditions named. Binding seen in cells or lysates may run through a third protein. Some binding calls cover weakened binding; strength is not graded here. For part of these data: Where a sequence is shown, tags or fusion partners need not be part of it.", "data": [{"substance": "Cdc48 (from UniProt P25694 1-835)", "values": [{"measurement": "binding", "setting": "[1]", "result": "binds"}, {"measurement": "binding", "setting": "[2]", "result": "binds"}, {"measurement": "binding", "setting": "[3]", "result": "binds"}, {"measurement": "binding", "setting": "[4]", "result": "binds"}, {"measurement": "binding", "setting": "[5]", "result": "binds"}, {"measurement": "binding", "setting": "[6]", "result": "no binding"}]}]}
